About 6,000 (1.7%) of roughly 360,000 compounds were called active. Inconclusive means that the source gave no clear call. Such entries were picked first, then a sample of the others. Calls follow the shape of the dose curve; as a rule, active = well fitted cell-killing curve with a large enough effect; inconclusive = small, poorly fitted or top-dose-only effect, or effect the other way; inactive = flat fitted curve, though single readings scatter. No potency is given beside an inconclusive call; the fits are too rough.
assay: qHTS for induction of synthetic lethality in tumor cells producing 2HG: qHTS for the HT-1080-NT fibrosarcoma cell line; settings: HT-1080-NT fibrosarcoma viability, CellTiter-Glo ATP luminescence, 48 h; series mostly up to 46.1 µM;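 also: NT is the 2HG producing partner of a matched IDH1 knockdown line; nearly all actives have a fitted effect of over 55% in size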
Method in brief: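 Viability by CellTiter-Glo luminescence after 48 h compound exposure at 37C of HT-1080-NT cells (750/well, RPMI, 5% FBS). % activity scaled between DMSO wells and medium-only wells, then curve-fitted and categorized by curve class.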
Potency is read from the fitted curve at half-maximal effect; tags tell the direction and shape of the fitted curve.

Structure (SMILES)	Potency
CC(=O)Nc1cccc(-c2cc(NC=O)c3ncc(-c4ccc(C(C)=O)cc4)n3c2)c1	active: 23.1 µM
O=c1cc(CSc2nnc(Nc3ccccc3F)s2)nc2sccn12	inconclusive [cytotoxic, partial curve]
Cc1ccc(S(=O)(=O)Nc2cc(-c3nn(C)c(=O)c4ccccc34)ccc2N2CCOCC2)cc1	inconclusive [cytotoxic, single point]
CCn1c(CNC(=O)COc2ccc(C(C)C)cc2)nnc1SCC(=O)Nc1ccccc1C(C)C	inconclusive [cytotoxic, single point]
COc1ccc(NS(=O)(=O)c2cccc(NC(=O)C34CCC(CC3)C4)c2)cc1	inactive
O=C(c1ccccc1)c1cc2ccc(O)cc2oc1=O	inconclusive [cytotoxic, partial curve]
O=C(c1cc2cc(Br)ccc2o1)N1CCN(c2ccccc2)CC1	inactive
COC(=O)c1cnc(Oc2ccc(NC(=O)NC(=O)c3c(OC)cccc3OC)cc2)cc1C(F)(F)F	inconclusive [cytotoxic, full curve]
CCCCN(C(=O)c1ccc(-c2ccc([N+](=O)[O-])cc2)o1)c1c(N)n(CC(C)C)c(=O)[nH]c1=O	inactive
CN(CCC(=O)Nc1ccc(Br)cc1)Cc1ccccc1	inconclusive [cytotoxic, single point]
O=C(NC(=S)N(CCCCO)C1CCCCC1)c1sc2ccccc2c1Cl	inconclusive [cytotoxic, partial curve]
COc1ccccc1/C=C/C=N/NC(=O)c1ccccn1	inconclusive [rising, partial curve]
C[C@H]1c2cccc(O)c2C(O)=C2C(=O)[C@]3(O)C(O)=C(C(N)=O)C(=O)[C@@H](N(C)C)C3[C@@H](O)C21 (some centres undefined)	inconclusive [cytotoxic, single point]
S=c1[nH]nc(-c2cc(-c3ccccc3)n[nH]2)n1/N=C/c1ccc(Br)s1	inconclusive [cytotoxic, single point]
CCN(CC)c1ccc(N=C2C(=O)Nc3ccccc32)cc1	inconclusive [cytotoxic, single point]
COCCNC(=O)CCn1nc(-c2ccc(C)cc2)ccc1=O	inactive
O=C(Nc1ccc(Cl)cc1)N1CCC(c2nc(-c3cccs3)no2)CC1	inconclusive [cytotoxic, single point]
Cc1cc(C(=O)Nc2nnc(C3CCCCC3)s2)no1	inconclusive [cytotoxic, partial curve, poor fit]
CCN(CC)C(=O)c1cccc(-c2csc(C(O)(c3ccccc3)C(F)(F)F)n2)c1 (centres undefined)	active: 23.1 µM
CCNC(=O)c1cc2c(c(-c3cccc(-c4cccnc4)c3)n1)[C@H](CCO)N(S(C)(=O)=O)C2	inconclusive [cytotoxic, full curve]
N#Cc1cccc(NC(=O)CNc2cccc(S(=O)(=O)N3CCCCC3)c2)c1	inconclusive [cytotoxic, single point]
N/C(=C\C(=O)c1cc(Cl)ccc1O)C(Cl)(Cl)Cl	active: 8.2 µM

Structure (SMILES)	Potency
CCN(CC)c1ccc(NC(=O)c2cc(OC)cc(OC)c2)c(C)c1	active: 3.66 µM
COc1ccc(-c2noc(CCC(=O)N3CCN(c4cccc(OC)c4)CC3)n2)cc1	inactive
CCOc1ccccc1NC1=C(Cl)C(=O)N(Cc2ccccc2)C1=O	inconclusive [cytotoxic, single point]
O=S(=O)(NCC(c1cccnc1)N1CCN(Cc2ccccc2)CC1)c1ccccc1 (centres undefined)	inactive
O=C(c1cc(COc2ccc(F)c(F)c2)on1)N1CCN(C/C=C/c2ccccc2)CC1	inconclusive [cytotoxic, single point]
O=S(=O)(Cc1ccccc1Cl)NCCc1ccccc1	inactive
CC(=O)c1ccc(C(=O)N2CCCC(CO)(Cc3ccccc3C)C2)s1 (centres undefined)	inactive
O=C(NCCCN1CCOCC1)c1ccc2c(=O)n(Cc3ccccc3)c(=S)[nH]c2c1	active: 18.4 µM
Cc1ccc(Cc2c(-c3ccc(C)cc3)nc3ccc(Br)cn23)cc1	inconclusive [cytotoxic, single point]
COc1cccc(NC(=O)c2cc(Cl)nnc2Cl)c1	active: 11.6 µM
COc1ccc2[nH]c3c(c2c1)CCN1C(=O)C(CC(=O)NCC24CC5CC(CC(C5)C2)C4)C[C@H](C(=O)N(C(C)C)C(C)C)[C@@]31C (some centres undefined)	inconclusive [cytotoxic, partial curve]
Cc1ccc(NC(=O)CSc2nc3ccc(Nc4nc(N5CCOCC5)nc(N5CCOCC5)n4)cc3s2)cc1	inactive
CCOc1cc(CNCCCN2CCOCC2)cc(Br)c1OCC(=O)Nc1cccc(C(F)(F)F)c1	inconclusive [cytotoxic, single point]
O=C(CSc1cccc2cccnc12)OCC(=O)c1ccccc1	active: 29.1 µM
COc1ccc(C(=O)NC(=S)Nc2ccc(Cc3ccncc3)cc2)cc1	active: 18.4 µM
CSc1ccc(CN2CCCC(CNC(=O)c3ccc(F)cc3)C2)cc1 (centres undefined)	inconclusive [cytotoxic, partial curve]
Cc1nc2c(OCc3cccc(Cl)c3)cccn2c1N(C)Cc1cccs1	inconclusive [cytotoxic, single point]
COc1ccc(CNC(=O)Nc2nc(C(N)Cc3ccc(Cl)cc3)cs2)cc1 (centres undefined)	inconclusive [cytotoxic, single point]
CC1(C)CC(=O)C=C(NC2=CC3OC(c4ccccc4)OCC3OC2=O)C1 (centres undefined)	inconclusive [cytotoxic, partial curve]
Cc1nn(Cc2ccccc2Cl)c2sc(C(=O)NC(C)(C)C)cc12	inconclusive [cytotoxic, partial curve]
CN(C)CCCN(C(=O)c1cc(-c2cccs2)nc2ccccc12)c1nc2ccc(F)cc2s1	active: 8.2 µM
CC1CCCN(C(c2cccs2)c2nnnn2Cc2ccccc2)C1 (centres undefined)	inactive

Source: PubChem BioAssay AID686970 (National Center for Advancing Translational Sciences (NCATS), 2013)
